Laboratory results as given in the RNAGym collection of RNA variant scans (doi:10.1073/pnas.2313332121).
Variants at the floor of the assay are shown more often than the library holds them.

B1: TPR 5TU (parent)
chain: GGAUCUUCUCGAUCUAACAAAAAAGACAAAUCUGCCACAAAGCUUGAGAGCAUCUUCGGAUGCAGAGGCGGCAGCCUUCGGUGGCGCGAUAGCGCCAACGUUCUCAACUAUGACACGCAAAACGCGUGCUCCGUUGAAUGGAGUUUAUCAUG

Variants of: B1
Assay: polymerase ribozyme fitness, log enrichment relative to wild type (log ratio); higher = more active; in vitro selection for triplet polymerase activity
In short: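 In triplicate, a single round of in vitro selection was run on each mutant library, PCR-built and transcribed, covering one subunit of a heterodimeric triplet polymerase ribozyme. Frozen incubation at −7 °C followed annealing with a biotinylated primer, partner subunit and triplets, and extended constructs were then gel-excised, streptavidin-captured and taken through RT-PCR. Fitness is the logarithm of genotype enrichment over wild-type enrichment, from inverse-variance-weighted replicate averages of Illumina-sequenced inputs and outputs. […] only genotypes with ≥10 input reads and ≥1 read per output were kept.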

Variant | polymerase ribozyme fitness (log ratio)
C8G A91U | ≤ -4.2
C8G C10A A28U A39C G50A G67C G92U C108U | ≤ -4.2
C8G C10A A30C A66C G88A G94U A106C C131U | ≤ -4.2
C8G C10A G62A G92U C108U | ≤ -4.2
C8G C10G C14G A41C G83U A119U G141C | ≤ -4.2
C8G C10G U31G C38U A49C G65U G71U G83U C105G U145A | ≤ -4.2
C8G C10U G50U C93U C95A C116U C129A | ≤ -4.2
C8G C10U G65U C96U G100A A142G | ≤ -4.2
C8G C14A U53A C57A C72A G88U C95U U139A | ≤ -4.2
C8G C14G A30U C79U | ≤ -4.2
C8G C14G A41C G48A | ≤ -4.2
C8G C14U A19C C75A G81A C85G C93U C118G | ≤ -4.2
C8G C14U A26C U61A C69U G80A U145G | ≤ -4.2
C8G C14U G25C A52U C93U U104G U144A | ≤ -4.2
C8G C14U U90G A106C G133C | ≤ -4.2
C8G C18A A24G G67C U102C A107U A142U | ≤ -4.2
C8G C18A G46C A60U G70A G94U G140U A150G | ≤ -4.2
C8G C18G C57G G83U C118U G128A | ≤ -4.2
C8G C27A A49G U53G G67C C96G U144A C149A | ≤ -4.2
C8G C32G A66G C116A C123A | ≤ -4.2
C8G C32U C36A G50U C85G | ≤ -4.2

Variant | polymerase ribozyme fitness (log ratio)
C8G C35A G88C U148C | ≤ -4.2
C8G C35G C105G U144A | ≤ -4.2
C8G C35G G59A G84A G94C G100U U130A U135C | ≤ -4.2
C8G C36G A98G U101G G136A | ≤ -4.2
C8G C36G G92A C96U | ≤ -4.2
C8G C36U A66C G86C A138C | ≤ -4.2
C8G C36U C114U A115G U135G A150C | ≤ -4.2
C8G C38G U44C G74U G88A A107G U146G | ≤ -4.2
C8G C43A C72A U90C G133U G143C | ≤ -4.2
C8G C43U U61G G84U A107C G117C U148G | ≤ -4.2
C8G C54G G67A C85G | ≤ -4.2
C8G C54U G71C C93U C95A A150G | ≤ -4.2
C8G C54U G140U U144G | ≤ -4.2
C8G C75G G84U U102C | ≤ -4.2
C8G C79U C85G | ≤ -4.2
C8G C85A | ≤ -4.2
C8G C116G | -3.15
C8G G11C A17C C38A U55A G70A C75A C87A A91U G133A | ≤ -4.2
C8G G11C A26U C38U C57U C95U A137G | ≤ -4.2
C8G G11U C32G | ≤ -4.2
C8G G11U U31A U90G A137C A150U | -4.16

Variant | polymerase ribozyme fitness (log ratio)
C8G G25C C35A A60U G65C G71A C72U G81U G88C C93G C114G A115C A121G | ≤ -4.2
C8G G25C U31A C95U G100C G141A A142U | ≤ -4.2
C8G G25C U33C C72U U82G C99G U144A | ≤ -4.2
C8G G25C U53G C63U C108A | ≤ -4.2
C8G G34U A73C C85G U148G | ≤ -4.2
C8G G42A G59U A66U C87G U139G | ≤ -4.2
C8G G42C G50C A91C C93A | ≤ -4.2
C8G G46C C57U G59A G88U C96G A120U | ≤ -4.2
C8G G48U U53A G94U A98G C105G A113G G143C | ≤ -4.2
C8G G59C C96G A147U U148C | ≤ -4.2
C8G G62C G70U C96A C103U | ≤ -4.2
C8G G67C G92U C99U A107U U148A | ≤ -4.2
C8G G83C | ≤ -4.2
C8G G84A | -3.43
C8G G84U | ≤ -4.2
C8G G84U G100U C132U U144A | ≤ -4.2
C8G U9G U33C A47U C96U G136A | ≤ -4.2
C8G U13A C27U C36A G74A A89G C116A C131G | ≤ -4.2
C8G U13A G50A G71A C95U U139A | ≤ -4.2
C8G U13A G88A C118U G141U U144A | ≤ -4.2
C8G U13A U33G G71A G74A C87G C96A C105A | ≤ -4.2

Variant | polymerase ribozyme fitness (log ratio)
C8G U13C A17G C72U G81A C87A U90G C95U A122G | ≤ -4.2
C8G U15C A52G C57G G59U C87G | -3.95
C8G U15G U53A C57U A60G C95U U104C A110C | ≤ -4.2
C8G U33C C35A G84U | ≤ -4.2
C8G U33C G50A G83A U144C | ≤ -4.2
C8G U44G G46A G84A U144A | ≤ -4.2
C8G U53A C57G C96U C108U U135A | ≤ -4.2
C8G U55A | -2.91
C8G U90A U134A A137C | ≤ -4.2
C8G U134A | ≤ -4.2
C8G U139G A150C | ≤ -4.2
C8U A12U A47C C93U U104G | ≤ -4.2
C8U A16C A66G C85G | ≤ -4.2
C8U A16C C35U A41C G59C U61A A73U G88U G100U C103U G141A | ≤ -4.2
C8U A16C G46C C76A C87A G92U | ≤ -4.2
C8U A16G A21C A26U G74C C95U C105G C118U U134C U144A | ≤ -4.2
C8U A16U U33G G42C A49U C85A U146G G152C | ≤ -4.2
C8U A16U U53A C87U U144C | ≤ -4.2
C8U A17C A23U G86A A89G A91C C99G | ≤ -4.2
C8U A17G A21U C85U G126A U139C | ≤ -4.2
